Experimental data: PMC6639383
Results are given in words; binding and its absence hold for the method and conditions named. Binding seen in cells or lysates may run through a third protein. Some results given as binding are weak or reduced against the parent protein; the word gives no strength. Each block holds one substance with its values, some of them ahead of it.

Protein sequences, listed by entry. Tags and fused reporters are not part of them. Lines headed by an entry give the natural chain unless they say otherwise; changes in a name come on top. Chains listed by the source or under a name are the forms on record and can include a tag or linker. Residues count along the entry.
Protein kinase C substrate 80K-H (PRKCSH), endogenous (P14314, residues 15-528): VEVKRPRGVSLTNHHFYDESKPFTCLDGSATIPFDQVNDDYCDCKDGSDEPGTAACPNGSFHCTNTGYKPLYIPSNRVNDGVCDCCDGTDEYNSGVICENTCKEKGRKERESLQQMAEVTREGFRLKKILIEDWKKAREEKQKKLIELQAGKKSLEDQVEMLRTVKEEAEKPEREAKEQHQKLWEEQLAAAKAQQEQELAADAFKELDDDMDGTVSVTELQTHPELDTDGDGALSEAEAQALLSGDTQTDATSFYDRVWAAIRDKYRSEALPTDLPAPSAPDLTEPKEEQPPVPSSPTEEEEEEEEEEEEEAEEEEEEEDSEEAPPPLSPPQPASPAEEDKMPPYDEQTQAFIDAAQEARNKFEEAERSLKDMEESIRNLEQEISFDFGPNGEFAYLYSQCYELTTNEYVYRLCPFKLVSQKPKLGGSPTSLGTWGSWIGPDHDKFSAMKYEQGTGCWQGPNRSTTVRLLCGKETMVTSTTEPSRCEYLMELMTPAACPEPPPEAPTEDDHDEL
Full-length wild-type PRKCSH with a C-terminal Flag-tag (P14314-2, form named): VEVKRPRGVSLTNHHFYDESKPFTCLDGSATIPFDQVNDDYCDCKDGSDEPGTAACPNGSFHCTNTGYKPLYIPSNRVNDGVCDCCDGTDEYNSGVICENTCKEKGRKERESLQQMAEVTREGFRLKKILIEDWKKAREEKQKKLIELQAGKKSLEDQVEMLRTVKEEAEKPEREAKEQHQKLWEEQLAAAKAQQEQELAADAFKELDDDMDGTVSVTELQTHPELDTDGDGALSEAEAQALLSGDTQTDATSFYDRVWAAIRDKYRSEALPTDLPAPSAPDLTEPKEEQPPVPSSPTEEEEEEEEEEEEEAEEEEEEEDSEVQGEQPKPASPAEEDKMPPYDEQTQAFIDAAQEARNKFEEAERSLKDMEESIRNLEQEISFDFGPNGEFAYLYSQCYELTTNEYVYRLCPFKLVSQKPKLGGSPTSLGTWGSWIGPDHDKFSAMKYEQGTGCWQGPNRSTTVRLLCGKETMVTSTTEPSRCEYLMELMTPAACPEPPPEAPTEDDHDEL
UniProt O75460, residues 19-977: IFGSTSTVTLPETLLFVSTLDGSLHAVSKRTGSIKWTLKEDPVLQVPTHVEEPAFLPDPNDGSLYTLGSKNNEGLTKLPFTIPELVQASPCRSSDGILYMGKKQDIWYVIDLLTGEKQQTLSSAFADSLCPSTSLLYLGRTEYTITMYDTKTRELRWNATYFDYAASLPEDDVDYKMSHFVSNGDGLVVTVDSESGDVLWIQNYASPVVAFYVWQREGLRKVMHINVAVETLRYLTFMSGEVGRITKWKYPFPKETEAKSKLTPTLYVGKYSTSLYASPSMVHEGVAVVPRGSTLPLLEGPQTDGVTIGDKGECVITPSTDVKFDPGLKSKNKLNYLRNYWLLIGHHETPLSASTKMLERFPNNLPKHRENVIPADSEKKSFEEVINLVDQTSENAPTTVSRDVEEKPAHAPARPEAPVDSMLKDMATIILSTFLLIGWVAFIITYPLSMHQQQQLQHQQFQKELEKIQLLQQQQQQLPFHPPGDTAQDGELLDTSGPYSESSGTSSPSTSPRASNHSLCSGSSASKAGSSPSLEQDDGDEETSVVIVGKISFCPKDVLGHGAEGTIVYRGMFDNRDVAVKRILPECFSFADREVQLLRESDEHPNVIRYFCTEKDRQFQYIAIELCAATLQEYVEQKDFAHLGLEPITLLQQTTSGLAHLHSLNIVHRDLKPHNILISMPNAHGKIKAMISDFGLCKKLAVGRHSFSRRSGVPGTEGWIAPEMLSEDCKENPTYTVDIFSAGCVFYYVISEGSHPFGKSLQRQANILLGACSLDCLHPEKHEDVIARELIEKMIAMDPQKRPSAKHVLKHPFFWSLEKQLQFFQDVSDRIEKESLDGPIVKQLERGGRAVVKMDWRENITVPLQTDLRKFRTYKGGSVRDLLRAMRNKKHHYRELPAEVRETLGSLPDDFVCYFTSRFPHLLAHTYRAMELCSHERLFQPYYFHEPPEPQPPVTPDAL

Tests used:
[1] = biological target: Protein kinase C substrate 80K-H (PRKCSH), endogenous (human (endogenous in L02 and Huh-7)) (UniProt P14314); assay: co-IP; L02 cells transfected with IRE1α-FV, treated with 10 μg/mL TM; precipitation with anti-PRKCSH antibody
[2] = biological target: Protein kinase C substrate 80K-H (PRKCSH), endogenous (human (endogenous in L02 and Huh-7)) (UniProt P14314); assay: co-IP; L02 cells transfected with IRE1α-FV, resting cells; precipitation with anti-PRKCSH antibody
[3] = biological target: inositol-requiring enzyme 1α (IRE1α/ERN1), endogenous (human (endogenous in L02 and Huh-7)) (UniProt O75460); assay: co-IP; L02 cells transfected with Flag-tagged PRKCSH constructs, treated with 10 μg/mL TM (mutants: 1 h); endogenous IRE1α; for PRK-Flag precipitation with anti-IRE1α antibody
[4] = biological target: inositol-requiring enzyme 1α (IRE1α/ERN1), endogenous (human (endogenous in L02 and Huh-7)) (UniProt O75460); assay: co-IP; endogenous proteins; lysates of resting (untreated) L02 and Huh-7 cells; lysis buffer 50 mM Tris-HCl pH 7.2, 10 mM NaCl, 1% NP-40; protein A agarose
[5] = biological target: inositol-requiring enzyme 1α (IRE1α/ERN1), endogenous (human (endogenous in L02 and Huh-7)) (UniProt O75460); assay: co-IP; endogenous proteins; lysates of L02 cells treated with 10 μg/mL TM or glucose-free medium and of Huh-7 cells treated with 10 μg/mL TM; lysis buffer 50 mM Tris-HCl pH 7.2, 10 mM NaCl, 1% NP-40; protein A agarose; for GIIα precipitation with anti-GIIα antibody
[6] = biological target: inositol-requiring enzyme 1α (IRE1α/ERN1), endogenous (human (endogenous in L02 and Huh-7)) (UniProt O75460); assay: condition: only 120 min of TM treatment (L02 cells); co-IP; endogenous proteins; lysates of L02 cells at 120 min of 10 μg/mL TM treatment

- binding [1]: binds
- binding [2]: binds weakly
Substance: Flag- and Venus-tagged human IRE1α construct (IRE1α-FV) (from UniProt O75460 19-977)

- binding [3]: binds
Substance: Full-length wild-type PRKCSH with a C-terminal Flag-tag (from UniProt P14314-2 15-525)

- binding [5]: binds
- binding [6]: no binding
Substance: Protein kinase C substrate 80K-H (PRKCSH), endogenous (from UniProt P14314 15-528)
- binding [4]: no binding (condition: resting conditions (no ER stress))
